# Measurements: PubChem BioAssay (NCATS)
# Several values for one entry are separate records, joined by “and”; a condition that tells them apart may be missing. Identical values can stand only once. The shares of active, inactive and inconclusive entries below differ from those in the screen. Potencies of inconclusive entries are doubtful fits and often do not repeat. Activity calls are given as the source filed them. The call rests on the fitted dose curve; in most records, active means well fitted cell-killing curve with a large enough effect; inconclusive means small, poorly fitted or top-dose-only effect; inactive means flat fitted curve, though single readings scatter.
# Assay: qHTS of pediatric cancer cell lines to identify multiple opportunities for drug repurposing: Primary screen for BT-12 cells (AID 1347101); further: nearly all actives have a fitted effect of over 25% in size
# Conditions: BT-12 viability, CellTiter-Glo luminescence, 48 h; series mostly up to 57.3 µM; activity change, negative = cytotoxic: at the top concentration
# Excerpt: Drug repurposing or repositioning has been offered as a strategy for drug development in oncology programs. This approach has special potential for childhood cancers and other rare or orphan diseases, where the expected return on new drug development has been a disincentive to pharmaceuticals.
# In this project we exploit the poly-pharmacology of drugs to discover new indications via phenotypic screening of a panel of 19 well-characterized cell lines derived from solid tumors seen in children and adolescents. The goal is to identify approved drugs with previously unrecognized anticancer properties that has the potential to reveal new mechanisms and biological processes involved in carcinogenesis or drug resistance. We employed a titration-based paradigm (quantitative high-throughput screening or qHTS), where all compounds were tested at multiple concentrations for their effect on cell viability. Concentration-response curves (CRCs) were derived directly from the primary screen, and both potency and efficacy values were used to identify compounds with robust bioactivity profiles. We screened the NIH Chemical Genomics Center (NCGC) Pharmaceutical Collection (NPC) and Mechanism Interrogation Plate (MIPE) small molecule collections of approved and investigational compounds against these cell lines; and measured metabolically active cells after 48 hours of compound treatment as a proxy for cell viability.
# Assay Submitter: Nathalia J. Martinez, National Center for Advancing Translational Sciences, National Institutes of Health, Rockville, MD, USA; email: natalia.martinez@nih.gov
# [1] Shen, M et al. Quantitative high-throughput phenotypic screening of pediatric cancer cell lines identifies multiple opportunities for drug repurposing. Oncotarget 2017 Dec 19;9(4):4758-4772. PMID 29435139.
# The cells were obtained from University of North Carolina (UNC), Pediatric Preclinical Testing Program (PPT), and Coriell Institute (CI).
# qHTS cell viability assay:
# Cells were assayed in growth media at a density of 500-1,000 cells/well. Five microliters of cells were dispensed into 1,536-well, white, solid-bottom, TC-treated plates (Greiner Bio One) using a multidrop dispenser and incubated at 37 degrees C, 5% CO2, under a humidified atmosphere for 5 hours. Twenty-three nanoliters of compounds and controls (neutral control DMSO or positive control bortezomib at final concentration of 2.3 µM) were subsequently transferred by Kalypsys pintool. For primary screens, the MIPE collection was tested at 11-point dilutions (final concentrations range from 0.78 nM to 46 µM) and the NPC collection at 8-point dilutions (final concentrations range from 0.59 nM to 46 µM). Compounds tested in follow-up screens were assayed at 11-point dilutions. Cells were incubated for 48 hours, followed by addition of 3 µL of CellTiter-Glo (Promega). After a 15 min incubation at room temperature, samples were analyzed for luminescence intensity using a ViewLux High-throughput CCD imager equipped with clear filters.
# Potency means the concentration at half of the fitted maximal effect; tags describe the fitted curve by direction and shape.
SMILES,Potency,"activity change, negative = cytotoxic"
COc1ccc(CCN(C)CCCC(C#N)(c2ccc(OC)c(OC)c2)C(C)C)cc1OC (stereo not given),"inconclusive: 15.5 µM [cytotoxic, partial curve]",
Cc1cnc(Nc2cccc(CN3CCOCC3)c2)nc1Nc1cccc(S(=O)(=O)NC(C)(C)C)c1,active: 13.7 µM,
COc1c(C)cnc(Cn2cnc3c(Cl)nc(N)nc32)c1C,"inconclusive: 1.37 µM [cytotoxic, full curve]",
CNC(=O)[C@H](CC1=CN=C2C=CCC=C12)NC(=O)[C@@H](CC(=O)NO)CC(C)C,active: 0.344 µM,
CC1(C)O[C@H]2CC(=O)OC[C@]23[C@H]2CC[C@@]4(C)[C@H](c5ccoc5)OC(=O)[C@H]5O[C@]54[C@]2(C)C(=O)C[C@@H]13,inactive,
CCCCCN(C)CCC(O)(P(=O)(O)O)P(=O)(O)O,,inactive: 5.44%
Nc1ccn([C@@H]2CS[C@H](CO)O2)c(=O)n1,,inactive: 8.44% [at 116 µM]
CN(C)c1ccccc1CN1CCCN(Cc2ccccc2N(C)C)C1c1ccncc1,"inconclusive: 30.6 µM [cytotoxic, single point]",
Nc1ccc(C(=O)c2cc3c(ccc4ccccc43)[nH]2)cc1,active: 9.68 µM,
CCC(=O)N1CCN(c2ccc(-n3c(=O)ccc4cnc5ccc(-c6cnc7ccccc7c6)cc5c43)cc2C(F)(F)F)CC1,"inconclusive: 0.0273 µM [cytotoxic, full curve]",
C=C1CCC2[C@](C)(CO)C(O)CC[C@]2(C)C1CC=C1C(=O)OCC1O (stereo not given in full),,inactive: 4.24% [at 116 µM]
Cc1cccc(-c2[nH]c(C(C)(C)C)nc2-c2ccc3c(c2)OCO3)n1,active: 7.69 µM,
CN1CCN2c3ccccc3Cc3ccccc3C2C1 (stereo not given),"inconclusive: 24.3 µM [cytotoxic, single point]",
CNC(=O)c1ccc(N2C(=S)N(c3ccc(C#N)c(C(F)(F)F)c3)C(=O)C2(C)C)cc1F,"inconclusive: 21.7 µM [cytotoxic, partial curve]",
CCCCC[C@H](O)C=C[C@H]1[C@H](O)CC(=O)[C@H]1CCCCCCC(=O)O,"inconclusive: 24.3 µM [cytotoxic, single point]",
Cc1cccc(N(C)C(=S)Oc2ccc3ccccc3c2)c1,"inconclusive: 21.9 µM [cytotoxic, single point] and inconclusive: 43.2 µM [cytotoxic, single point]",
O=C1C(CCC(O)c2ccc(F)cc2)C(c2ccc(O)cc2)N1c1ccc(F)cc1 (stereo not given),,inactive: -2.91%
COc1cc(OC2CCN(C)CC2)ccc1Nc1ncc2c(n1)n(C1CCCC1)c(=O)n2C,"inconclusive: 24.3 µM [cytotoxic, partial curve]",
OC[C@H]1OC(O)C[C@@H](O)[C@H]1O (stereo not given in full),,inactive: 17.7%
Nc1nc(Cl)nc2c1ncn2[C@@H]1O[C@H](CO)[C@@H](O)[C@H]1F,"inconclusive: 0.0172 µM [cytotoxic, full curve]",

SMILES,Potency,"activity change, negative = cytotoxic"
CCCCOCCOc1nc(-c2ccc(C(=O)O)c(F)c2)sc1C,"inconclusive: 8.63 µM [cytotoxic, partial curve]",
N#CC(=C(N)Sc1ccc(N)cc1)c1ccccc1C(F)(F)F,"inconclusive: 13.7 µM [cytotoxic, partial curve]",
CCCCN(CCCC)CC(O)c1cc(Cl)cc2c1-c1ccc(Cl)cc1C2=Cc1ccc(Cl)cc1 (stereo not given),,inactive: 2.66%
CNC[C@@H](O)[C@@H](O)[C@H](O)[C@H](O)CO,,inactive: 17.5%
CC(C)c1nc(CN(C)C(=O)N[C@H](C(=O)N[C@@H](Cc2ccccc2)C[C@H](O)[C@H](Cc2ccccc2)NC(=O)OCc2cncs2)C(C)C)cs1,"inconclusive: 19.3 µM [cytotoxic, partial curve]",
COc1cc2ncnc(Nc3cc(Br)c(O)c(Br)c3)c2cc1OC,"inconclusive: 43.2 µM [cytotoxic, single point]",
CN(C)c1nc(Cc2ccc(NC(=O)c3ccc4ccccc4c3)cc2)nc(Cl)c1CC(=O)O,,inactive: -5.9%
Cc1oc(=O)oc1CN1CCN(c2cc3c(cc2F)c(=O)c(C(=O)O)c2n3C(C)S2)CC1 (stereo not given),"inconclusive: 38.9 µM [cytotoxic, partial curve, poor fit]",
C[C@]1(CO)CN(c2cc(C(=O)Nc3ccc4c(c3)-c3c(c(C(N)=O)nn3-c3ccc(F)cc3)CC4)c(Cl)cn2)C[C@@]1(C)CO,"inconclusive: 8.63 µM [cytotoxic, full curve]",
CC1(C)CC(=O)c2c(C(F)(F)F)nn(-c3ccc(C(N)=O)c(NC4CCC(O)CC4)c3)c2C1 (stereo not given),"inconclusive: 0.0217 µM [cytotoxic, full curve, poor fit]",
O=C(Nc1nnc(-c2ccco2)o1)c1cc(-c2ccccc2)nc2ccccc12,"inconclusive: 24.3 µM [cytotoxic, partial curve]",
C[C@@H](NC(=O)c1ncnc(N)c1Cl)c1ncc(C(=O)Nc2cc(C(F)(F)F)c(Cl)cn2)s1,"inconclusive: 8.63 µM [cytotoxic, partial curve, poor fit]",
Cc1ccc(S(=O)(=O)N[C@@H](Cc2ccccc2)C(=O)CCl)cc1,"inconclusive: 21.7 µM [cytotoxic, partial curve]",
CC(=O)O[C@H]1C(=O)[C@@]2(C)C([C@H](OC(=O)c3ccccc3)[C@]3(O)C[C@H](OC(=O)[C@H](O)[C@@H](NC(=O)c4ccccc4)c4ccccc4)C(C)=C1C3(C)C)[C@]1(OC(C)=O)CO[C@@H]1C[C@@H]2O (stereo not given in full),"inconclusive: 0.0027 µM [cytotoxic, full curve, poor fit]",
COc1cc2nc(N(C)CCCNC(=O)C3CCCO3)nc(N)c2cc1OC (stereo not given),"inconclusive: 13.8 µM [cytotoxic, partial curve]",
Cc1cc2c(F)c(Oc3ncnn4cc(OC[C@@H](C)O)c(C)c34)ccc2[nH]1,"inconclusive: 19.3 µM [cytotoxic, partial curve]",
C[C@@H](Cc1cc2c(c(C(N)=O)c1)N(CCCO)CC2)NCCOc1ccccc1OCC(F)(F)F,"inconclusive: 21.7 µM [cytotoxic, partial curve]",
Cc1csc(-c2nnc(Nc3ccc(Oc4ncccc4-c4ccnc(N)n4)cc3)c3ccccc23)c1,"inconclusive: 19.3 µM [cytotoxic, partial curve]",
Cc1ccc(NC(=O)c2cccc(C(C)(C)C#N)c2)cc1Nc1ccc2ncn(C)c(=O)c2c1,"inconclusive: 12.2 µM [cytotoxic, partial curve]",
C[C@]12CC[C@@H]3c4ccc(O)cc4CC[C@H]3[C@H]1[C@@H](O)[C@@H](O)[C@H]2O,"inconclusive: 38.5 µM [cytotoxic, single point]",
